Data on one substance can be found in article PMC11475522.

Protein sequences, listed by entry. Tags and fused reporters are not part of them.
UniProt Q00987: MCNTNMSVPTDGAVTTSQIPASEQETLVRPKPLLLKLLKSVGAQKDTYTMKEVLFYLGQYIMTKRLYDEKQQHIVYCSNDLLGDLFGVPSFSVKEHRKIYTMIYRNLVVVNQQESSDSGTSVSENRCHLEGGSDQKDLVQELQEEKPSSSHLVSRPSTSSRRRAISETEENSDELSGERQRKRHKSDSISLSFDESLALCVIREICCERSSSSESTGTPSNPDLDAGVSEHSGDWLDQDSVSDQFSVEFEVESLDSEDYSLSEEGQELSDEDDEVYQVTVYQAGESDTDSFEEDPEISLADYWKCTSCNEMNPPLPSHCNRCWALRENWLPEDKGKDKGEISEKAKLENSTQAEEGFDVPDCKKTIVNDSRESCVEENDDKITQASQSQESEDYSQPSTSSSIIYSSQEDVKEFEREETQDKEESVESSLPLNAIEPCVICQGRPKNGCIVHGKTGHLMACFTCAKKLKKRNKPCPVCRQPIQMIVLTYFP
UniProt Q13619: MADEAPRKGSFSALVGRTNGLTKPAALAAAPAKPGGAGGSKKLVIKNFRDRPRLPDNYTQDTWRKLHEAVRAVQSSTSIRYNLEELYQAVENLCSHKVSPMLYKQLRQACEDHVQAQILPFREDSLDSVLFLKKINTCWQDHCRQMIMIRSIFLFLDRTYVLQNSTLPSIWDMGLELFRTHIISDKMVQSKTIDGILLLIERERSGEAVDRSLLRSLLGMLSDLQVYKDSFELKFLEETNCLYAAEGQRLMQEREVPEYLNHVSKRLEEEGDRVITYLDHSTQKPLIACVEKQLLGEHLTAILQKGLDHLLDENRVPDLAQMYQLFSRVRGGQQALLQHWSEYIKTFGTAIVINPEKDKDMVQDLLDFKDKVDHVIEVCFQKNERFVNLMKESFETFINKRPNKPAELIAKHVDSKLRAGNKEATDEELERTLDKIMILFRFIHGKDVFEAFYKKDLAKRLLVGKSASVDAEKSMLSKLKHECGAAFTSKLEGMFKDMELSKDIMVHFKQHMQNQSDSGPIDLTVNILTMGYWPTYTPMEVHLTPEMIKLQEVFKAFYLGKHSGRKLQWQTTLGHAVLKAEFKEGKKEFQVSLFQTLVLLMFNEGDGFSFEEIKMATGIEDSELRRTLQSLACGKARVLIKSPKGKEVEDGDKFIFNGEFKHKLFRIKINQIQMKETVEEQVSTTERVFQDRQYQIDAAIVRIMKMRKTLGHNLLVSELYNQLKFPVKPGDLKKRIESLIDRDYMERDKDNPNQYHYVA

No constants are given. Whether binding was seen depends on the method and setting. In cells and extracts the contact can be indirect. Some entries that bind do so weakly or less than the wild type.

The assay has as its target Mdm2 (human (endogenous in A375)) (UniProt Q00987). The assay can be described thus: co-IP; 4B2 anti-Mdm2 antibody and protein G sepharose, A375 extracts in NP-40 buffer (1% NP-40, 150 mM NaCl, 50 mM Tris-HCl pH 8.0, 5 mM EDTA, 1 mM DTT), 4 °C; cells untreated or treated with MLN4924 (1 μM, 6 h); Western blot.

As for “non-NEDDylated (inactive) Cullin4A (from UniProt Q13619 1-759)”, the binding result is reported as “binds”.
